{"source": "PubChem BioAssay AID720542", "about": "(National Center for Advancing Translational Sciences (NCATS), 2013)", "note": "The campaign covered roughly 360,000 compounds. About 740 (0.21%) were called active. Inconclusive results, whose numbers are uncertain, are shown with a selection of clear calls. Calls come from the whole dose curve; as a rule, active = well fitted inhibition curve with a large enough effect; inconclusive = small, poorly fitted or top-dose-only effect; inactive = no such curve, though single readings can be large or run the other way. No potency is given beside an inconclusive call; the fits are too rough. Non-standard residues stand in square brackets, D forms with d. Residues, ends and D or L forms follow the SMILES beside them. pGlu = O=C1CC[CH](C(=O)O)N1"}
{"system": "Plasmodium falciparum AMA1 (3D7) - RON2 peptide interaction", "assay": "qHTS for Inhibitors of AMA1-RON; Towards Development of Antimalarial Drug Lead: Primary Screen; note: nearly all actives have a fitted effect of over 45% in size; note: potency is the fitted concentration of half-maximal effect; tags give direction and shape of the fitted curve;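 for activity change, negative = inhibition: 0% = vehicle wells and -100% = peptide control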", "conditions": "AlphaScreen AMA1-biotinylated RON2 peptide binding; activity change, negative = inhibition: at 58.2 µM (top of the series) unless noted", "outline": "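AMA1 (3D7) with his tag at 25 nM final met compounds first, then biotinylated RON2 peptide at 25 nM; detection used donor plus acceptor beads, 10 µg/mL apiece, read by AlphaScreen after 30 min at room temperature.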"}
{"smiles": "O=[N+]([O-])c1cnc2ccc3ccccc3c2c1", "Potency": "inconclusive [inhibitor, partial curve]"}
{"smiles": "Cc1cccc(C=Nc2ccc3c4c(cccc24)CC3)c1O", "Potency": "inconclusive [inhibitor, partial curve]"}
{"smiles": "CCN1CCN(c2ccc(NC(=O)c3cccc(F)c3)cc2Cl)CC1", "activity change, negative = inhibition": "inactive: -3.56%"}
{"smiles": "CN(C)c1cccc(C(=O)OC(C(=O)Nc2ccc([N+](=O)[O-])cc2Br)c2ccccc2)c1", "note": "(stereo not drawn)", "Potency": "inconclusive [inhibitor, full curve, poor fit]"}
{"smiles": "O=C(NCc1cccnc1)c1cc(-c2ccccc2)on1", "Potency": "inconclusive [inhibitor, partial curve, poor fit]"}
{"smiles": "Fc1ccc(C(c2ccc(F)cc2)N2CCN(C/C=C/c3ccccc3)CC2)cc1", "Potency": "inconclusive [inhibitor, single point]"}
{"smiles": "Cc1ccc(NCCCn2cnc3c(OCc4ccccc4)ncnc32)cc1C", "Potency": "inconclusive [inhibitor, single point]"}
{"smiles": "Cc1ccc(O)c(Nc2c3ccccc3nc3ccccc23)c1", "Potency": "inconclusive [inhibitor, single point]"}
{"smiles": "Clc1ccc(/C=N/Nc2ccccn2)cc1", "activity change, negative = inhibition": "inactive: 15.1%"}
{"smiles": "CCN(CC)S(=O)(=O)c1cccc(C(=O)NCCc2ccccc2)c1", "activity change, negative = inhibition": "inactive: 1.05%"}
{"smiles": "CCn1cc(C(=O)NCc2cccnc2)c2cc(OC)c(OC)cc2c1=O", "Potency": "inconclusive [inhibitor, partial curve]"}
{"smiles": "COc1ccc(CN2CCC(N(CCc3ccccc3)Cc3ccccc3)CC2)c(OC)c1", "Potency": "inconclusive [inhibitor, partial curve]"}
{"smiles": "Cc1cc(C)c(S(=O)(=O)/N=C2\\C=C(Nc3ccc(C(=O)O)cc3)C(=O)c3ccccc32)c(C)c1", "Potency": "inconclusive [inhibitor, single point]"}
{"smiles": "CCNc1nc(CSc2ccccc2)nc2sc(C)c(C)c12", "activity change, negative = inhibition": "inactive: -11.9%"}
{"smiles": "CCCc1sc(N/N=C/c2ccccn2)nc1-c1ccc(F)cc1", "activity change, negative = inhibition": "inactive: -11.8%"}
{"smiles": "O=C1/C(=C\\c2cccs2)Sc2ccc3ccccc3c21", "Potency": "inconclusive [inhibitor, partial curve]"}
{"smiles": "Cc1cccc(Nc2nc(-c3sc(C)nc3C)cs2)c1", "Potency": "inconclusive [inhibitor, partial curve]"}
{"smiles": "COc1ccc(-c2ncncc2-c2ccc(Cl)cc2)c(O)c1", "activity change, negative = inhibition": "inactive: -1.12%"}
{"smiles": "CCOc1cc(C2C(C#N)=C(N)Oc3c2c(=O)oc2ccccc32)ccc1OC(=O)c1cccs1", "note": "(stereo not drawn)", "activity change, negative = inhibition": "inactive: -14.2%"}
{"smiles": "O=C1CSC(=S)N1/N=C/c1ccc(O)c(O)c1O", "Potency": "inconclusive [inhibitor, single point]"}
{"smiles": "CN(Cc1ccccc1F)c1cc2c(c3c1ccn3C)C1CCC2C1", "note": "(stereo not drawn)", "Potency": "inconclusive [inhibitor, single point]"}
{"smiles": "C=C1c2nc3ccccc3n2C=C(c2ccc(C)cc2)N1c1ccccc1", "Potency": "inconclusive [inhibitor, partial curve]"}
{"smiles": "CC(=O)Nc1ccc(-n2nnnc2SCC(=O)Nc2cccc(NC(=O)c3ccco3)c2)cc1", "Potency": "inconclusive [inhibitor, single point]"}
{"smiles": "CCOc1ccc(/C=C/C(=O)OCC(=O)NCCc2ccc(OCC)c(OCC)c2)cc1OC", "Potency": "inconclusive [inhibitor, single point]"}
{"smiles": "COc1ccc(OC)c(NC(=O)C2(C)CCN2Cc2ccc(OC)c3ccccc23)c1", "note": "(stereo not drawn)", "Potency": "inconclusive [inhibitor, partial curve]"}
{"smiles": "COc1ccc(N2CCN(C(=O)C(=O)c3cccc([N+](=O)[O-])c3)CC2)cc1", "Potency": "inconclusive [inhibitor, partial curve]"}
{"smiles": "COc1ccc(/C=C2\\COc3ccccc3C2=O)cc1OC", "Potency": "inconclusive [inhibitor, partial curve]"}
{"smiles": "CN(Cc1ccccc1N1CCCC1)C(=O)c1cc2cc(Cl)ccc2o1", "Potency": "inconclusive [inhibitor, single point]"}
{"smiles": "CN(C)c1ccc(NC(=O)Nc2cccc(Cl)c2)cc1", "Potency": "inconclusive [inhibitor, single point]"}
{"smiles": "CCOc1ccccc1C=NNC(=O)c1cccc2ccccc12", "activity change, negative = inhibition": "inactive: 15.4%"}
{"smiles": "Cc1cc(N2CCN(c3ccccc3)CC2)nc(-n2nc(C)cc2C)n1", "activity change, negative = inhibition": "inactive: -0.331%"}
{"smiles": "O=C1C(NS(=O)(=O)c2cccs2)=C(N2CCN(c3cccc(C(F)(F)F)c3)CC2)C(=O)c2ccccc21", "Potency": "active: 10 µM"}
{"smiles": "Cc1[nH]c2ccccc2c1N=Nc1ccc(F)cc1", "Potency": "inconclusive [inhibitor, partial curve]"}
{"smiles": "Cc1ccc(S(=O)(=O)N2CCOCC2)cc1NC(=O)CN1CCC(Cc2ccccc2)CC1", "Potency": "inconclusive [inhibitor, partial curve, poor fit]"}
{"smiles": "COCC(C)n1c(-c2ccc3c(c2)NC(=O)CO3)csc1=Nc1ccc(OC(F)F)cc1", "note": "(stereo not drawn)", "Potency": "inconclusive [inhibitor, partial curve]"}
{"smiles": "COc1ccc(OC)c2sc(N3CCN(c4ccccc4)CC3)nc12", "Potency": "inconclusive [inhibitor, partial curve, poor fit]"}
{"smiles": "CCC1CN(C(=O)Nc2cccc(C)c2)c2cc(C)ccc2O1", "note": "(stereo not drawn)", "Potency": "inconclusive [inhibitor, partial curve]"}
{"smiles": "Cc1nc2ncccn2c1-c1csc(Nc2ccc(O)cc2)n1", "Potency": "inconclusive [inhibitor, full curve, poor fit]"}
{"smiles": "COCC(C)n1c(C)cc(C(=O)COC(=O)c2nn(C)c(=O)c3ccccc23)c1C", "note": "(stereo not drawn)", "activity change, negative = inhibition": "inactive: -12.4%"}
{"smiles": "O=C(O)CCCCCNC(=O)/C=C/c1ccco1", "Potency": "inconclusive [inhibitor, single point]"}
{"smiles": "O=[N+]([O-])c1ccc2cc[nH]c2c1", "Potency": "inconclusive [inhibitor, full curve, poor fit]"}
{"smiles": "Cc1cccc(CN2CCCC(C(=O)c3ccc(C(F)(F)F)cc3)C2)n1", "note": "(stereo not drawn)", "Potency": "inconclusive [inhibitor, partial curve]"}
{"smiles": "C[C@H]1CCC[C@@]2(O[C@H](CCO)C[C@H](O)[C@H]2O)O1", "activity change, negative = inhibition": "inactive: -0.369%"}
{"smiles": "Nc1cc(Cl)ccc1CN1C(=O)c2ccccc2C1=O", "activity change, negative = inhibition": "inactive: 3.14%"}
{"smiles": "CC1(C)C(=O)Nc2ccccc2N1C(=O)CSc1nc(-c2ccccc2)cs1", "activity change, negative = inhibition": "inactive: 2.49%"}
{"smiles": "CCn1c(SCc2ccc(F)cc2)nc2c(c1=O)SCC2", "Potency": "inconclusive [inhibitor, single point]"}
{"smiles": "CC(C)CC(NC(=O)C1CCC(=O)N1)C(=O)NC(CC(C)C)C(=O)N1CCCC1C(N)=O", "note": "(stereo not drawn) ([pGlu]LLP-NH2; configuration not given here)", "Potency": "inconclusive [inhibitor, partial curve]"}
{"smiles": "COc1ccccc1/C=C/C=C1\\Oc2c(ccc(O)c2CN2CCN(CCO)CC2)C1=O", "Potency": "inconclusive [inhibitor, partial curve]"}
{"smiles": "Cc1ccc([N+](=O)[O-])cc1N=C(c1cccc(Br)c1)N1CCOCC1", "Potency": "inconclusive [inhibitor, partial curve]"}
{"smiles": "COc1ccccc1NC(=O)CCS(=O)(=O)c1ccc2c(c1)NC(=O)C(C)S2", "note": "(stereo not drawn)", "activity change, negative = inhibition": "inactive: 10.7%"}
{"smiles": "O=C1CCN(CCc2ccccc2)CCN1[C@H](COc1ccccc1)c1ccccc1", "Potency": "inconclusive [inhibitor, partial curve]"}
{"smiles": "CCNc1nc(C(=O)O)nc(N2CCOCC2)n1", "Potency": "inconclusive [inhibitor, partial curve]"}
{"smiles": "CN(CC(=O)Nc1ccc(S(=O)(=O)N2CCCC2)cc1)Cc1cccc(Cl)c1Cl", "activity change, negative = inhibition": "inactive: -6.87%"}
{"smiles": "CCN(CCc1ccccc1)c1ccc2c(c1)C1CC2CCN1C(=O)OCc1ccccc1", "note": "(stereo not drawn)", "Potency": "inconclusive [inhibitor, partial curve]"}
{"smiles": "CN1CC(C(=O)c2ccc([N+](=O)[O-])cc2)C(c2ccc(Cl)cc2)C1", "note": "(stereo not drawn)", "Potency": "inconclusive [inhibitor, single point]"}
{"smiles": "CCOC(=O)/C(=N/Nc1ccc(OC)cc1)N1CCCc2ccccc21", "Potency": "active: 22.4 µM"}
{"smiles": "COC(=O)c1cc(C(=O)OC)n(Cc2ccc(F)cc2)c1C", "activity change, negative = inhibition": "inactive: 1.25%"}
{"smiles": "O=[N+]([O-])c1ccc(CSc2nnc(SCc3ccccc3)s2)cc1", "Potency": "inconclusive [inhibitor, partial curve]"}
{"smiles": "CN(C(=O)c1ccc(-c2ccccc2)cc1)C1CCCCC1", "activity change, negative = inhibition": "inactive: 17.6%"}
{"smiles": "CC(C)Cc1nnc(NC(=O)CSc2nc(O)c(-c3ccccc3)c(=O)[nH]2)s1", "Potency": "inconclusive [inhibitor, single point]"}
{"smiles": "O=C(Nc1nc(-c2ccc(Cl)s2)cs1)c1ccccc1", "activity change, negative = inhibition": "inactive: -18.4%"}
{"smiles": "COC(=O)Cn1c2c(c3cc(C)ccc31)CCCC2", "Potency": "inconclusive [inhibitor, single point]"}
{"smiles": "COc1ccc(N2CCN(C(c3cccs3)C(C)NS(=O)(=O)c3ccccc3)CC2)cc1", "note": "(stereo not drawn)", "Potency": "inconclusive [inhibitor, partial curve]"}
{"smiles": "COCCn1c(SCC(=O)NC2CCCC2)nnc1-c1ccco1", "Potency": "inconclusive [inhibitor, partial curve]"}
{"smiles": "Cc1cccc(CNc2ncc(-c3cccc([N+](=O)[O-])c3)n2C)c1", "Potency": "inconclusive [inhibitor, single point]"}
{"smiles": "COC(=O)C1=C(C)N(CC(C)C)C(=O)/C1=C\\c1cccs1", "Potency": "inconclusive [inhibitor, partial curve]"}
{"smiles": "COc1ccc(C(=O)Nc2cc3c(oc2=O)CCCC3=O)cc1", "Potency": "inconclusive [inhibitor, partial curve]"}
{"smiles": "Cc1ccc2nc(-c3ccc(CN4CCC(n5c(=O)[nH]c6ccccc65)CC4)cc3)c(-c3ccccc3)nc2c1", "Potency": "inconclusive [inhibitor, partial curve]"}
